The campaign covered roughly 150,000 compounds. About 540 (0.36%) showed an effect of 50% or more. The list shows a part of the results.

As usually defined, the % Inhibition is the change of the read-out against control, counted positive when it falls.

In this assay the test system is Plasmodium falciparum. Kind of assay: Primary screen in NF54 nanoGlo assay, in single point, at 2uM, 72h; a lower Z score goes with more inhibition. Type of assay: functional, Erythrocyte. The note with it: timepoint 72 hour.
Take `CCc1c(O)nc(N2CCOCC2)[nH]c1=O`: the “% Inhibition” value is recorded as -6% and the Z score stood at 0.79.

Consider `Cc1oncc1CNC(=O)Cc1ccc(F)cc1`, for which the “% Inhibition” value is recorded as -10% and the Z score was 1.56.

For the compound `CC[C@H](C)N(CCO)c1ncc(Br)cn1`, the “% Inhibition” value is 2% and the Z score is reported as -0.22.

Take `Cc1ccc(C)c(CC(=O)N2CCO[C@H](c3nc(C)cs3)C2)c1`: the “% Inhibition” value came to 1% and the Z score was -0.27.

For `N[C@H]1CCCN(C(=O)c2ccc3[nH]ncc3c2)C1`, the “% Inhibition” value is listed as 6% and the Z score is -0.72.

Consider `Cc1cc(C)n(CC2(CNC(=O)CCc3csc(N)n3)CC2)n1`, for which the “% Inhibition” value is listed as 4% and the Z score is -0.73.

Regarding `O=C(Nc1ccccc1Cl)N1C2CCC1CC(Oc1ccccn1)C2` (stereo not drawn), the “% Inhibition” value is -15% and the Z score amounted to 1.91.

As for `CN(CCCc1cnn(C)c1)c1cc(N2CCOCC2)ncn1`, the “% Inhibition” value is recorded as 0% and the Z score is 0.04.

Consider `CC(C)c1nc(C(=O)N[C@@H](C)c2ncon2)cs1`, for which the “% Inhibition” value is recorded as -5% and the Z score stood at 0.63.

In the case of `Cc1cn2c(n1)CC[C@H](NCc1c(C(C)C)nn(C)c1N1CCOCC1)C2`, the “% Inhibition” value is -5% and the Z score stood at 0.66.

On to `O=S(=O)(C1COC1)N1CC[C@H]1C1CC1`, for which the “% Inhibition” value was -8% and the Z score is on record as 1.31.

On to `CC(C)C(=O)N1CCc2cc(CNC(=O)c3cccnc3)ccc21`, for which the “% Inhibition” value is listed as -12% and the Z score was found to be 1.06.

In the case of `COCCc1noc(C2CN(S(=O)(=O)c3cccc(OC)c3)C2)n1`, the “% Inhibition” value was -6% and the Z score was 0.74.

With `C[C@@H](CNc1nccn(-c2ccc3c(c2)OCCO3)c1=O)c1ccccc1`, the “% Inhibition” value amounted to 1% and the Z score was -0.16.

As to `COc1ccc(-c2csc(-c3nc(-c4cccc(Cl)c4)cs3)n2)cc1`, the “% Inhibition” value is on record as -13% and the Z score is reported as 1.47.

On to `C[C@@H](C(=O)O)N1CCN(c2ccnc(N(C)C)n2)CC1`, for which the “% Inhibition” value was -3% and the Z score is reported as 0.4.

Turning to `CCCN(CC(=O)O)C(=O)Cc1ccc(C)cc1`, the “% Inhibition” value is recorded as -8% and the Z score is given as 1.41.

For `C[C@H]1Cc2cc(Br)cc3c(=O)c(C(=O)NCCc4ccccc4)cn1c23`, the “% Inhibition” value was -2% and the Z score was 0.38.

Consider `c1ccc(-n2ncc3c2N=C(N2CCCCCCC2)NC3)cc1`, for which the “% Inhibition” value was -3% and the Z score is 0.43.

Consider `Cc1ccc(C)c(CN2CCCN(c3ccc(C)cc3NC(=O)c3cccs3)C2=O)c1`, for which the “% Inhibition” value is listed as -17% and the Z score came to 2.85.

Turning to `CC1CCN(C(=O)Cn2nnc([C@@]3(C(F)(F)F)CCCN3)n2)CC1`, the “% Inhibition” value is on record as -6% and the Z score was determined as 0.58.

On to `CCCCc1nc(CN2CCNC(=O)[C@@H]2CC)no1`, for which the “% Inhibition” value is recorded as -9% and the Z score was found to be 0.94.

As to `COc1cc(N(C)CC2(CO)CCOCC2)ncn1`, the “% Inhibition” value is given as 0% and the Z score is 0.04.

For the compound `COCCN(CC(=O)OC)Cc1cc(C)no1`, the “% Inhibition” value worked out at 3% and the Z score is -0.41.

`COc1ccc(-c2ccc(N3CCCN(C(=O)CN(C(=O)C4CCC4)C4CC4)CC3)nn2)cc1OC`: the “% Inhibition” value is listed as -5% and the Z score came out at 0.83.

Turning to `CC(C)c1cc([C@@H]2CCCN2S(=O)(=O)c2ccc(Cl)s2)on1`, the “% Inhibition” value is -5% and the Z score came to 0.97.

As to `CCOc1ccc(S(=O)(=O)N2CCC(Oc3cc(C)n(C)c(=O)c3)CC2)cc1F`, the “% Inhibition” value is listed as -5% and the Z score was 0.9.

As to `CCCCN(C)c1ccc(C(F)(F)F)cc1C(=O)O`, the “% Inhibition” value was -23% and the Z score is given as 2.66.

Turning to `Cc1cncc(-c2c(C(F)(F)F)nn(C)c2C)c1`, the “% Inhibition” value amounted to 8% and the Z score was -1.47.

With `CC(C)n1ncnc1CNC(=O)c1ccn(CCc2ccccc2)n1`, the “% Inhibition” value was -11% and the Z score is 1.93.

For `CCc1cc(C(=O)N2CCC[C@H](C)C2)c2c(C)noc2n1`, the “% Inhibition” value is -1% and the Z score was 0.13.

Consider `COCCN(CC(C)C)c1ncns1`, for which the “% Inhibition” value is listed as -3% and the Z score is listed as 0.51.

For the compound `COc1ccc(OC)c(CN(Cc2nc(C(=O)NCc3ccc4c(c3)OCO4)co2)C(C)C)c1`, the “% Inhibition” value is given as -1% and the Z score stood at 0.07.

As for `CCOC1CC(c2nc(Cc3cc(Cl)ccc3Cl)no2)C1` (stereo not drawn), the “% Inhibition” value was -9% and the Z score is listed as 1.55.

With `Cc1ccc(-n2cc(-c3ccccc3)nc2NC(=O)CN(C(=O)Cc2ccccc2)C(C)C)cc1C`, the “% Inhibition” value is -3% and the Z score was 0.67.

Regarding `COc1cccc2c1OC[C@@H](C(=O)N1CCN(c3ccccn3)CC1)C2`, the “% Inhibition” value came out at 17% and the Z score is reported as -2.2.

As for `CC(C)=CCC[C@@]1(C)CCC(=O)N(Cc2ccon2)C1`, the “% Inhibition” value is recorded as -6% and the Z score came to 1.06.

Regarding `CCOc1ccc(OCC)c(NS(=O)(=O)c2ccc(-c3ccno3)cc2OC)c1`, the “% Inhibition” value is on record as -6% and the Z score was 1.08.

Consider `COCC(=O)N[C@@H]1CN(C(=O)c2cc(F)cc(Cl)c2)C[C@H]1c1ccnn1C`, for which the “% Inhibition” value is recorded as 2% and the Z score is -0.37.

Regarding `COc1nc(-c2cccc(C(=O)NCCCc3nnc(N)s3)c2)nn1C`, the “% Inhibition” value is given as -16% and the Z score is 2.81.

With `O=C(NCCCc1ccccc1)c1cccc2c1C(=O)N(C1CCCCC1)C2`, the “% Inhibition” value stood at 0% and the Z score was 0.

`Cc1ccc(C(=O)N(CCC#N)CC2CC2)cc1Oc1ccncc1`: the “% Inhibition” value is 7% and the Z score is given as -0.9.

For `CNC(=O)[C@H]1CN(Cc2ccncc2)C[C@@H]1NC(=O)c1ccoc1C`, the “% Inhibition” value was -4% and the Z score is on record as 0.44.

As for `CCc1cccc(/N=C(\NCc2ccccn2)NC(=O)c2ccc(Cl)cc2)c1`, the “% Inhibition” value is listed as -11% and the Z score worked out at 1.01.
